Measured values taken from PubChem BioAssay AID624296 (National Center for Advancing Translational Sciences (NCATS), 2012).
In all, about 350,000 compounds went through this assay and about 9,900 (2.8%) were called active. The inconclusive results got no clear call from the source; some entries with a clear call stand among them for comparison. The call rests on the fitted dose curve; in most records, active means well fitted activation curve with a large enough effect; inconclusive means small, poorly fitted or top-dose-only effect; inactive means no such curve, though single readings can be large or run the other way. Potencies of inconclusive entries are left out as doubtful fits.

assay: A quantitative high throughput screen for small molecules that induce DNA re-replication in MCF 10a normal breast cells.; further: nearly all actives have a fitted effect of over 50% in size; conditions: MCF 10A DNA re-replication, Hoechst nuclear intensity, 48 h; series mostly up to 46.1 µM
Potency means the concentration at half of the fitted maximal effect; tags describe the fitted curve by direction and shape.

Row | Structure (SMILES) | Potency
1 | O=C(OCc1ccc(-c2ccccc2)cc1)c1cccc(O)c1 | active: 20.6 µM
2 | COc1cc(OC)cc(C(=O)N[C@H](C(=O)OCC(=O)c2ccc(C)c([N+](=O)[O-])c2)C(C)C)c1 | inactive
3 | Cc1ccc(S(=O)(=O)N2[C@@H](c3ccc(Br)cc3)C(C(=O)O)=C[C@H]2CC2CCCC2)cc1 | inconclusive [activator, single point]
4 | COCCCNC(=S)NNC(=S)Nc1ccc(OC)cc1 | inactive
5 | O=S(=O)(Nc1nc2ccccc2nc1Nc1cccc(S(=O)(=O)N2CCCCC2)c1)c1ccccc1 | inconclusive [activator, full curve]
6 | COc1ccc(C(=O)C[n+]2ccc3ccccc3c2C)cc1 | inconclusive [activator, full curve, poor fit]
7 | O=C(NC1CCCCC1)C(c1cccnc1)N(C(=O)CCl)c1cccc(Cl)c1 (stereo not drawn) | active: 13 µM
8 | O=C(CCN1C(=O)/C(=C/c2ccccc2Cl)SC1=S)Nc1ccccc1C(=O)O | inconclusive [activator, single point]
9 | COc1ccc(NCC(=O)Nc2ccc(Br)cc2F)c(OC)c1 | inconclusive [activator, partial curve, poor fit]
10 | Cc1ccc2nc3c(c(C(=O)O)c2c1)CCC3 | inconclusive [activator, full curve, poor fit]
11 | COc1cc(C2C(C(=O)c3cc4ccccc4o3)=C(O)C(=O)N2CCN2CCOCC2)ccc1OCCC(C)C (stereo not drawn) | inconclusive [activator, single point]
12 | Nc1nc(-c2ccccc2)cc(-c2ccccc2O)n1 | inactive
13 | O=C1N[C@@H](Cc2ccccc2)C(=O)N2[C@H]1C[C@]1(Br)c3ccccc3N(S(=O)(=O)c3ccc(F)cc3)[C@H]21 | inconclusive [activator, partial curve, poor fit]
14 | CC1CCN(C(=O)Cn2c(SCC(=O)Nc3nccs3)nc3ccccc32)CC1 | inactive
15 | COc1ccc(Oc2coc3cc(OCC(=O)N4CCCCC4)ccc3c2=O)cc1 | inconclusive [activator, partial curve, poor fit]
16 | Cn1nc(-c2ccc(OCC(=O)Nc3cccnc3)cc2)c2ccccc2c1=O | inconclusive [activator, partial curve]
17 | CC(=O)Nc1ccc(NC(=O)C(C)OC(=O)CCCOc2ccc(Cl)c(C)c2)cc1 (stereo not drawn) | inactive
18 | Cc1ccc(Nc2cc(=O)n(C3CCCCC3)c(=O)[nH]2)cc1C | inconclusive [activator, single point]
19 | CC1(NC(=O)Cc2ccc(S(=O)(=O)N3CCOCC3)s2)CCS(=O)(=O)C1 (stereo not drawn) | inactive
20 | O=C(Cn1cnc2c(NCc3ccccc3)ncnc21)NCc1nc2ccccc2[nH]1 | inconclusive [activator, full curve, poor fit]
21 | O=C(/C=C/c1ccccc1)NC(=S)Nc1ccccc1O | inactive
22 | Cc1cc(O)c(NC(=S)NC(=O)c2ccc(-c3ccc(Cl)cc3)o2)cc1C | active: 16.4 µM
23 | CC[C@@H]1C(c2ccc(F)cc2)=NN(c2ccc(Br)cc2)[C@H]1C(=O)N1CCOC1=O | active: 16.4 µM

Row | Structure (SMILES) | Potency
24 | O=C(Nc1nnc(SCc2ccc(F)cc2)s1)C1Cc2ccccc2CN1C(=O)c1ccco1 (stereo not drawn) | inconclusive [activator, partial curve, poor fit]
25 | O=c1cc(Cl)c(-c2ccccc2)n[nH]1 | inconclusive [activator, single point]
26 | COc1ccc(NC(=O)C2C3C=CC4(O3)C2C(=O)N(CCN2CCCCC2)C4C(=O)NC2CCCC(C)C2C)cc1 (stereo not drawn) | inconclusive [activator, single point]
27 | Cc1ccc(C)c(S(=O)(=O)N2C(=S)NC(=O)C2CC(C)C)c1 (stereo not drawn) | inconclusive [activator, single point]
28 | CC(C)Nc1nnc(SC(C)C(=O)Nc2ccc(Cl)cn2)s1 (stereo not drawn) | inconclusive [activator, partial curve, poor fit]
29 | CSc1cccc(-n2cc(-c3ccc4c(c3)OCO4)[nH]c2=O)c1 | active: 20.6 µM
30 | COc1ccc(C2=NN(CN3C(=O)C(=O)c4ccccc43)C(c3ccc(Br)cc3)C2)cc1 (stereo not drawn) | inconclusive [activator, single point]
31 | Cc1c(-c2ccccc2)n[nH]c1C(=O)N=Nc1c(O)[nH]c2ccccc12 | inconclusive [activator, single point]
32 | N#CC1=C(N)Oc2c(ccc3cccnc23)C1c1ccncc1 (stereo not drawn) | inconclusive [activator, single point]
33 | Cc1ccc(SCCOCCN2CCc3ccccc3C2)cc1 | inconclusive [activator, full curve, poor fit]
34 | CCn1c(=O)cc(SCC(=O)N2CCC(C)CC2)c2ccccc21 | inactive
35 | Cc1cc(C)c(NC(=O)c2cccc3c2C(=O)N(C2CCCCC2)C3)c(C)c1 | inconclusive [activator, partial curve, poor fit]
36 | Cc1cccc(N2CCN(S(=O)(=O)c3c(C)[nH]c(C)c3C(=O)N3CCCC3)CC2)c1C | inconclusive [activator, partial curve, poor fit]
37 | CCc1nc(CN2CCCC(C(=O)c3ccc4c5c(cccc35)CC4)C2)c(C)[nH]1 (stereo not drawn) | inconclusive [activator, partial curve, poor fit]
38 | Nc1ncnc2c1ncn2[C@@H]1O[C@H](CO)[C@@H](O)[C@@H]1O | active: 7.31 µM
39 | O=S(=O)(Nc1cccc(-c2cn3c(n2)SCC3)c1)c1ccccc1 | inactive
40 | COc1ccc(NC(=O)c2sc3nc(N4CCOCC4)c4c(c3c2N)CC(C)(C)OC4)c(OC)c1 | inactive
41 | COc1ccc(N2CC(O)=C(c3nc4ccccc4s3)C2=N)cc1 | inactive
42 | CCOc1ccc(-n2cc(C(=O)Nc3cccc(C)n3)c3cc(OC)c(OC)cc3c2=O)cc1 | inconclusive [activator, single point]
43 | O=C(NC(=C(Cl)Cl)S(=O)(=O)c1ccc(Cl)cc1)c1ccccc1 | inconclusive [activator, full curve, poor fit]
44 | Cc1cccc(N2CC(C(=O)Nc3nnc(SCCN4CCOCC4)s3)CC2=O)c1 (stereo not drawn) | inactive
45 | CCCc1ccc(-c2c(C)sc(NC(=O)c3ccnn3C)c2C#N)cc1 | active: 16.4 µM
46 | CCOc1ccc(C(=O)CC(C(=O)O)N2CCN(Cc3ccccc3)CC2)cc1 (stereo not drawn) | active: 16.4 µM

Row | Structure (SMILES) | Potency
47 | CC1(C)C2CCC1(C)C(OC(=O)c1ccc(O)cc1)C2 (stereo not drawn) | inconclusive [activator, single point]
48 | Cc1c(-c2n[nH]c(=S)n2-c2ccc(C(F)(F)F)cc2)nnn1-c1ccccc1 | inactive
49 | COc1ccc(NC(=O)/C(=C\c2ccco2)NC(=O)c2ccco2)cc1 | inactive
50 | O=C(Nc1nnc(-c2ccccc2Cl)o1)c1cc2cc([N+](=O)[O-])ccc2s1 | inactive
51 | O=C(CCC(=O)N1CCCCCC1)NCc1ccc(F)cc1 | inconclusive [activator, partial curve, poor fit]
52 | COc1cc(C(=O)NC(=S)Nc2ccc([N+](=O)[O-])cc2C)cc(OC)c1OC | inactive
53 | COc1ccc(-c2cc(-c3ccco3)[nH]c(=O)c2C#N)cc1 | inactive
54 | CCN1C(=O)c2cccc3c(S(=O)(=O)N(C(=O)c4ccncc4)c4ccc(OC)cc4)ccc1c23 | inconclusive [activator, single point]
55 | Cc1ccc(/C=N/NC(=O)CCCOc2ccc(Cl)cc2Cl)cc1[N+](=O)[O-] | inconclusive [activator, single point]
56 | COC(=O)CCC(=O)NNC(=O)CCCOc1ccc(Cl)cc1Cl | inactive
57 | COc1ccc(-c2nc(Cn3c(SCc4ccc(F)cc4)nc4ccncc43)c(C)o2)cc1OC | active: 3.66 µM
58 | Cc1ccc(-c2nn(-c3ccccc3)cc2/C=N/NC(=O)c2ccc(Br)o2)cc1 | inconclusive [activator, partial curve, poor fit]
59 | CCOc1ccc(/C=N/NC(=O)c2cc(-c3cccn3C)n[nH]2)cc1 | inactive
60 | Cc1cccc(NC(=O)C2SC(=Nc3c(C)cccc3C)C(C(=O)N3CCOCC3)=C2N)c1 (stereo not drawn) | inconclusive [activator, single point]
61 | O=C(Nc1ccc(Nc2ccccc2)cc1)c1ccco1 | inconclusive [activator, full curve, poor fit]
62 | O=C(c1ccc(CS(=O)Cc2ccc(Cl)cc2)o1)N1CCN(c2ccc(F)cc2)CC1 (stereo not drawn) | inactive
63 | COC(=O)c1[nH]c2cc(C)ccc2c1NC(=O)CN1CCCc2ccccc21 | inconclusive [activator, single point]
64 | COc1ccccc1/C=N/NC(=O)CSc1ccc2ccccc2n1 | active: 16.4 µM
65 | Nc1ncnc2nc(SCc3ccc(Cl)cc3Cl)[nH]c12 | inconclusive [activator, partial curve, poor fit]
66 | CCc1ccc2[nH]c(C(=O)Nc3ccc4c(c3)OCO4)cc2c1 | inconclusive [activator, single point]
67 | O=C(/C=C/C(Cl)(Cl)Cl)Nc1ccc(Cl)cc1 | inconclusive [activator, single point]
68 | CC1(C)CC(=O)C(C2(O)C(=O)N(Cc3ccccc3)c3ccccc32)CO1 (stereo not drawn) | inconclusive [activator, single point]
